Assay results: the supplement of paper PMC3334620
Over roughly 33,000 sequences, “E-score (-0.5 to 0.5)” has its median near -0.054; the highest 2% begin near 0.35. Some of the results follow.

Molecular target: T1, Stb5 (UniProt P38699)
T1 sequence: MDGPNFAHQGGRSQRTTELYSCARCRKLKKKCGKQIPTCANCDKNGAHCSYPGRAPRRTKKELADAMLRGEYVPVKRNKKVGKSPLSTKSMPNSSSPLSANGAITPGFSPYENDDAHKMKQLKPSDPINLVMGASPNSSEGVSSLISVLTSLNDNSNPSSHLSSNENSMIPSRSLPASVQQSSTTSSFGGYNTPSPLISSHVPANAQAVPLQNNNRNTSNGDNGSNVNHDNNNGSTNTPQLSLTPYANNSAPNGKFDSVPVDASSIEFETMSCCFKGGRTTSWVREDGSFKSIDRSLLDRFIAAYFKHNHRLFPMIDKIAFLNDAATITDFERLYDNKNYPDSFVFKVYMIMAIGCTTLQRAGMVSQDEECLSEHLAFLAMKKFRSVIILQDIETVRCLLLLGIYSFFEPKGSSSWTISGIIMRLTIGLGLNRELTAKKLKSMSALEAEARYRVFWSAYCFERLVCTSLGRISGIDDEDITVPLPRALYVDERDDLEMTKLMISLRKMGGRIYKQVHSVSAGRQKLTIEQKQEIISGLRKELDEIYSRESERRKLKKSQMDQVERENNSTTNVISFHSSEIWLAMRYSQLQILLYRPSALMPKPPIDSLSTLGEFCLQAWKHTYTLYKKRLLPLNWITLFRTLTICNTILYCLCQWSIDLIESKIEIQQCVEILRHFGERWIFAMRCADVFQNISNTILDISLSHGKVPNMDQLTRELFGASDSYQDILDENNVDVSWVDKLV
Assay: PBM E-score (8-mer binding enrichment) (E-score (-0.5 to 0.5)); higher = stronger / more preferred TF binding; most listed sequences are background and not binding sites
Conditions: protein concentration: 200 nM; construct: GST-full length
How it was run: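 Full-length yeast transcription factors or their DNA-binding domains, GST-tagged and expressed with PURExpress, were applied at about 100-200 nM to universal all-10-mer Agilent arrays. These arrays had been made double-stranded by primer extension on fresh or once-stripped slides. Detection used fluorescent anti-GST, normalisation used masliner, and E-scores for ungapped eight-base words pooled with reverse complements came from the Universal PBM Analysis Suite.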

Row | Sequence | PBM E-score
1 | AACGTCGG | 0.313
2 | CATGATGC | -0.12
3 | AGGAGACC | 0.0594
4 | ATGGCGCG | 0.0581
5 | GCAGCCCC | 0.00528
6 | CGTGTGCC | -0.19
7 | CCGTGCGC | 0.15
8 | GGATATTA | 0.304
9 | ACCTTACG | 0.0208
10 | AGATGCAT | -0.242
11 | CAACTCAG | -0.194
12 | AGTAATGC | 0.0229
13 | AACCGAGA | 0.0119
14 | ATTCGTAG | -0.164
15 | CGAGGCTC | -0.067
16 | CACGCGGG | 0.217
17 | GTAAACCA | 0.139
18 | CTAGCGGA | 0.169
19 | CTCCCCAC | -0.126
20 | GCTAGCCC | 0.0259
21 | TCGACAAA | -0.183
22 | ATTTTCAG | -0.111
23 | GGTAAGAA | 0.203
24 | ATCCTCTA | -0.285
25 | ATGGCAGC | -0.144

Row | Sequence | PBM E-score
26 | AGGAAAAC | -0.152
27 | CTCACTGC | -0.0459
28 | TTTAAAAA | 0.191
29 | GACTATTA | -0.0815
30 | ATAACGAT | -0.161
31 | AGGGAATC | -0.137
32 | CATGTAGG | -0.105
33 | ATGGATAA | 0.0427
34 | AGCCGTCG | 0.173
35 | AGGGAAGA | -0.209
36 | ACTGCGCG | 0.122
37 | AAATACTG | -0.0876
38 | CACGGAGG | 0.175
39 | CAAGTATA | -0.122
40 | CATACGGG | 0.102
41 | AGAGCCGA | 0.224
42 | AGCTTTCC | -0.0738
43 | ATCCGAAC | 0.177
44 | AGGTGAGA | -0.192
45 | GGCTATTA | -0.0171
46 | CTAGTACA | -0.105
47 | CTCTGTGA | -0.225
48 | CGTACCAA | -0.067
49 | ACGTGATG | -0.172
50 | ACCACGAA | -0.247

Row | Sequence | PBM E-score
51 | GTGGACGA | -0.124
52 | AAACAGCG | 0.277
53 | AGAACCCT | -0.0809
54 | CTCCTAGA | -0.247
55 | CAAATAGA | -0.098
56 | AGCTGTTA | -0.234
57 | GTACAAGA | -0.134
58 | ATTGAGCA | -0.176
59 | AAGCTGTA | -0.213
60 | ACCCTCGA | -0.213
61 | AAAATGAC | 0.0143
62 | CTTCAATC | -0.00212
63 | ACATTAAT | 0.0868
64 | CGGAGGGC | -0.0349
65 | ATAACCCA | -0.157
66 | GATTGTCA | -0.108
67 | AGAGAGAG | -0.277
68 | CCGTTGGA | 0.17
69 | AACCTAGC | -0.17
70 | CATTGCAC | -0.0998
71 | CAATTCCC | 0.168
72 | TGCGTCAA | -0.071
73 | TCCGACGA | 0.252
74 | CTCAGGAG | -0.181
75 | ACGGCTGC | 0.00857

Row | Sequence | PBM E-score
76 | CACCAGTG | -0.202
77 | CCATCGAA | -0.127
78 | CAGACTAG | -0.251
79 | CGCTGGAC | -0.0182
80 | AGTTTCAC | -0.201
81 | CAGTTCCC | -0.00039
82 | CAGTTGGG | -0.246
83 | ATAATCGA | -0.00434
84 | ACTTCCGC | 0.266
85 | AGAGTGGG | -0.0666
86 | ACCGTCGC | 0.332
87 | ACGCATAC | -0.0599
88 | ACATGACT | -0.0561
89 | CGCAGTCA | 0.0715
90 | CTATTGCA | -0.148
91 | ACCTGTGG | -0.0937
92 | AAGCAAGA | -0.283
93 | ACCATTGA | -0.106
94 | CTTATAGA | 0.0618
95 | GACAATCC | -0.00999
96 | TAAGTCAA | -0.123
97 | ACCGGGCG | 0.254
98 | CAATTGGA | -0.155
99 | ATGGTTTC | -0.0564
100 | ATGCTAGC | 0.102

Row | Sequence | PBM E-score
101 | AGTACTGA | -0.0745
102 | CAGACCGC | 0.272
103 | ACTATCAG | -0.211
104 | AATCAGTC | -0.0278
105 | CCAAAAAC | -0.0575
106 | AGATCTCG | -0.0591
107 | CACATTCA | -0.0813
108 | CAACCCCC | 0.14
109 | CGGCCCGA | 0.34
110 | CAAGTCCA | -0.171
111 | CGAATAAG | 0.021
112 | CAACACGA | -0.102
113 | AACGCAAG | -0.0897
114 | GTATCGTA | -0.256
115 | GCCTACGA | -0.254
116 | ACCACGCC | 0.044
117 | TCGACCGA | 0.0678
118 | ACAAACCG | 0.0581
119 | GACAAGTA | 0.0216
120 | CGCTCGAA | -0.0626
121 | AGGTCCTG | -0.205
122 | AGAGCTTC | -0.175
123 | AAACCACA | 0.0295
124 | ACGAAACG | 0.0619
125 | TAGATAAA | -0.133

Row | Sequence | PBM E-score
126 | CACTCAAC | -0.192
127 | GGTGGATA | 0.128
128 | GCTGCTTA | 0.0623
129 | GACTAACC | 0.101
130 | ACATAGTG | 0.0172
131 | CCGTTTTA | 0.337
132 | CCAATTGG | -0.121
133 | CCCACAAC | -0.0405
134 | CGGTGGGA | 0.257
135 | AAAACTCT | -0.157
136 | CACTCGCA | -0.203
137 | ATAGGCCA | -0.052
138 | AGCGTGCA | -0.0478
139 | ATTCACTG | -0.0515
140 | CTAATGGC | -0.0674
141 | GATACTGC | -0.0132
142 | CACCGGGG | 0.33
143 | ATCTGAAA | -0.0786
144 | AGACGTCC | -0.13
145 | CCCTGTAG | -0.0727
146 | AGAGGATA | -0.168
147 | ACGTTCCG | -0.0136
148 | CCTGCCAG | -0.205
149 | GTTCCGGA | 0.231
150 | ATGATCCG | 0.165

Row | Sequence | PBM E-score
151 | AGTGGTAC | -0.135
152 | ATGCAGCG | 0.172
153 | AAAACGAC | -0.207
154 | AGAATAGG | -0.0639
155 | GCTGTGCA | -0.241
156 | CCCCCCGC | 0.068
157 | GGCAGGCC | -0.103
158 | GGCCAGCA | -0.249
159 | CAAAGGTG | -0.0535
160 | GGAGACAA | 0.26
161 | CCCAATCC | -0.0718
162 | CCATCAGC | -0.121
163 | CCAGGTTC | -0.252
164 | AATCCTAT | 0.106
165 | GCGACCCA | 0.0254
166 | CTTTCCTC | -0.107
167 | ATCCCCAT | 0.0305
168 | ATGTATGC | -0.00766
169 | CCGTACGC | 0.18
170 | CAAGGGAG | -0.214
171 | GCGGGAGC | 0.0709
172 | AAGCCGGT | 0.237
